# Patent US11434227B2, “Broad spectrum antibacterial activity of novel bisbenzimidazoles targeting topoisomerase IA and the synergistic composition of bisbenzimidazole with efflux pump inhibitors against pathogenic bacteria” (Jawaharlal Nehru University (JNU), priority 2016, dated 2022)
# How the values were obtained:
# Test in all cases: HN12b in combination with efflux pump inhibitors (CB method, FICI)
# [1] = tested on: A. baumannii (MTCC1920); details: HN12b + PAβN
# Protocol: (§1) The fractional inhibitory concentration index (FICI) was calculated for each antibiotic in each combination by using the following formula: FICA+FICB=FICI, where FICA equals the MIC of drug A in combination divided by the MIC of drug A alone and FICB equals the MIC of drug B in combination divided by the MIC of drug B alone. The FICIs were interpreted as follows: FICI of ≤0.5 will correspond to synergy; FICI of >0.5 to ≤1 will correspond to additivity; FICI of >1 to ≤4 will correspond to no interaction (indifference), and FICI of >4 will correspond antagonism.
# [2] = tested on: Providencia sp. (MTCC 2102)
# Protocol: as §1
# [3] = tested on: K. planticola (MTCC 2272); details: HN12b + PAβN
# Protocol: as §1
# [4] = tested on: P. aeruginosa (MTCC1688); details: HN12b + PAβN
# Protocol: as §1
# [5] = tested on: Enterococcus sp. (1121); details: HN12b + PAβN
# Protocol: as §1
# [6] = tested on: K. planticola (1164); details: HN12b + PAβN
# Protocol: as §1
# [7] = tested on: P. aeruginosa (Ps 366); details: HN12b + PAβN
# Protocol: as §1
# [8] = tested on: Providencia sp. (P592); details: HN12b + CCCP
# Protocol: as §1
# [9] = tested on: Enterococcus sp. (2105); details: HN12b + PAβN
# Protocol: as §1
# [10] = tested on: E. coli KK45; details: HN12b + PAβN
# Protocol: as §1
structure (smiles),measurement,setting,value
"CCCN1CCN(c2nc3ccc(-c4nc5ccccc5[nH]4)cc3[nH]2)CC1 [HN12b, 2′-(4-propylpiperazine-1-yl)-1H, 3′H-2,5′-bibenzimidazole]",Interpretation,[1],Additive (FICI of >0.5 to ≤1 will correspond to additivity)
same,Interpretation,[2]; HN12b + CCCP,Additive (FICI of >0.5 to ≤1 will correspond to additivity)
same,Interpretation,[2]; HN12b + PAβN,Additive (FICI of >0.5 to ≤1 will correspond to additivity)
same,Interpretation,[3],Additive (FICI of >0.5 to ≤1 will correspond to additivity)
same,Interpretation,[4],Additive (FICI of >0.5 to ≤1 will correspond to additivity)
same,Interpretation,[5],Additive (FICI of >0.5 to ≤1 will correspond to additivity)
same,Interpretation,[6],Additive (FICI of >0.5 to ≤1 will correspond to additivity)
same,Interpretation,[7],Additive (FICI of >0.5 to ≤1 will correspond to additivity)
same,Interpretation,[8],Additive (FICI of >0.5 to ≤1 will correspond to additivity)
same,Interpretation,[9],Additive (FICI of >0.5 to ≤1 will correspond to additivity)
same,Interpretation,[10],Additive (FICI of >0.5 to ≤1 will correspond to additivity)
